The other results are listed elsewhere or left out.
B1: PhoQ; a variant is named by its letters at X, in order, P23837 (parent)
chain: MKKLLRLFFPLSLRVRFLLATAAVVLVLSLAYGMVALIGYSVSFDKTTFRLLRGESNLFYTLAKWENNKLHVELPENIDKQSPTMTLIYDENGQLLWAQRDVPWLMKMIQPDWLKSNGFHEIEADVNDTSLLLSGDHSIQQQLQEVREDDDDAEMTHSVAVNVYPATSRMPKLTIVVVDTIPVELKSSYMVWSWFIYVLSANLLLVIPLLWVAAWWSLRPIEALAKEVRELEEHNRELLNPATTRELTSLVRNLNRLLKSERERYDKYRTTLTDLTHSLKTPLXXLQXXLRSLRSEKMSVSDAEPVMLEQISRISQQIGYYLHRASMRGGTLLSRELHPVAPLLDNLTSALNKVYQRKGVNISLDISPEISFVGEQNDFVEVMGNVLDNACKYCLEFVEISARQTDEHLYIVVEDDGPGIPLSKREVIFDRGQRVDTLRPGQGVGLAVAREITEQYEGKIVAGESMLGGARMEVIFGRQHSAPKDE

Variants of: B1
Test: enrichment ratio after two sorts for PhoP signalling (ratio (wild type AVST 3.29)); higher = more functional
Settings: with PhoP (E. coli)

| Variant | enrichment ratio |
| --- | --- |
| HVDP | ≤ 0.25 |
| LTPD | ≤ 0.25 |
| PFFC | ≤ 0.25 |
| LDRG | ≤ 0.25 |
| LQAC | ≤ 0.25 |
| HWVK | ≤ 0.25 |
| DKPM | ≤ 0.25 |
| VGVE | ≤ 0.25 |
| CSVY | ≤ 0.25 |
| QMIF | ≤ 0.25 |
| PWHM | ≤ 0.25 |
| MDYV | ≤ 0.25 |
| TCDK | ≤ 0.25 |
| HKRA | ≤ 0.25 |
| YLVR | ≤ 0.25 |
| PPNG | ≤ 0.25 |
| PEPM | ≤ 0.25 |
| DCRH | ≤ 0.25 |
| LALF | ≤ 0.25 |
| DHNT | ≤ 0.25 |
| FTTF | ≤ 0.25 |

| Variant | enrichment ratio |
| --- | --- |
| QCHK | ≤ 0.25 |
| RFRV | ≤ 0.25 |
| SFAY | ≤ 0.25 |
| AASR | ≤ 0.25 |
| YTTD | ≤ 0.25 |
| RWHR | ≤ 0.25 |
| QWNT | ≤ 0.25 |
| HYWR | ≤ 0.25 |
| KLLA | ≤ 0.25 |
| SPMM | ≤ 0.25 |
| VIQQ | ≤ 0.25 |
| NAVL | ≤ 0.25 |
| IFAV | ≤ 0.25 |
| LHKF | ≤ 0.25 |
| LNGG | ≤ 0.25 |
| LFVI | ≤ 0.25 |
| RESV | ≤ 0.25 |
| LNVD | ≤ 0.25 |
| SPCA | ≤ 0.25 |
| FKMC | ≤ 0.25 |
| ELAW | ≤ 0.25 |

| Variant | enrichment ratio |
| --- | --- |
| SFQA | ≤ 0.25 |
| WLRK | ≤ 0.25 |
| QCMR | ≤ 0.25 |
| DRAH | ≤ 0.25 |
| KYSA | ≤ 0.25 |
| TLQE | 11.7 |
| HPCA | ≤ 0.25 |
| FAYC | ≤ 0.25 |
| FGSL | ≤ 0.25 |
| ASFD | ≤ 0.25 |
| KYRV | ≤ 0.25 |
| KSAE | ≤ 0.25 |
| WAPA | ≤ 0.25 |
| VRDI | ≤ 0.25 |
| EMQG | ≤ 0.25 |
| MTDR | ≤ 0.25 |
| NHID | ≤ 0.25 |
| GHGC | ≤ 0.25 |
| RDHG | ≤ 0.25 |
| SYLG | 9.61 |
| VKEG | ≤ 0.25 |

| Variant | enrichment ratio |
| --- | --- |
| LIIM | ≤ 0.25 |
| IGAR | ≤ 0.25 |
| YHCG | ≤ 0.25 |
| QKYH | 3.42 |
| FERI | ≤ 0.25 |
| IYIK | ≤ 0.25 |
| FNWL | ≤ 0.25 |
| SRCI | 3.77 |
| KSPY | ≤ 0.25 |
| GFPP | ≤ 0.25 |
| ADAK | ≤ 0.25 |
| DDDF | ≤ 0.25 |
| CTTR | ≤ 0.25 |
| QVMF | ≤ 0.25 |
| MTPS | ≤ 0.25 |
| QDTL | ≤ 0.25 |
| HHLM | ≤ 0.25 |
| MIGI | 4.29 |
| GYDV | ≤ 0.25 |
| FMFM | ≤ 0.25 |
| QAKE | ≤ 0.25 |

— a collection of fitness landscapes (doi:10.1126/science.1257360)
